Among all 3,200 compounds or so, about 300 (9.4%) showed activity. Only a part is listed here, and it is no random draw.
Tested on: A673/TR/shEF
Assay: cell viability (LOESS-normalised, relative to median of negative controls) (log2 ratio); higher = more viable cells (less compound effect), active = hit call of the paper (over 3 MAD below the median)
Conditions: treatment time: 72 h
Method in brief: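 Viability of A673/TR/shEF Ewing sarcoma cells was determined by CellTiter-Glo luminescence. The cells, at 1,500 per well in 384-well plates, were grown with or without doxycycline from 24 h before compound addition to switch on EWS-FLI1 shRNA knockdown, then exposed for three days to library compounds at two or more concentrations or to DMSO controls. Signals were LOESS-corrected plate by plate, normalised to the negative-control median and log2-transformed.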

[1] = 0.25 µM, library screen: screen1, EWS-FLI1 expression: high (no doxycycline)
[2] = 0.25 µM, library screen: screen1, EWS-FLI1 expression: low (doxycycline-induced shRNA knockdown)
[3] = 0.25 µM, library screen: screen2, EWS-FLI1 expression: high (no doxycycline)
[4] = 0.25 µM, library screen: screen2, EWS-FLI1 expression: low (doxycycline-induced shRNA knockdown)
[5] = 2.5 µM, library screen: screen1, EWS-FLI1 expression: high (no doxycycline)
[6] = 2.5 µM, library screen: screen1, EWS-FLI1 expression: low (doxycycline-induced shRNA knockdown)
[7] = 2.5 µM, library screen: screen2, EWS-FLI1 expression: high (no doxycycline)
[8] = 2.5 µM, library screen: screen2, EWS-FLI1 expression: low (doxycycline-induced shRNA knockdown)
[9] = 25 µM, library screen: screen3, EWS-FLI1 expression: high (no doxycycline)
[10] = 0.103 µM, library screen: screen3, EWS-FLI1 expression: high (no doxycycline)
[11] = 0.103 µM, library screen: screen3, EWS-FLI1 expression: low (doxycycline-induced shRNA knockdown)
[12] = 0.308 µM, library screen: screen3, EWS-FLI1 expression: high (no doxycycline)
[13] = 0.308 µM, library screen: screen3, EWS-FLI1 expression: low (doxycycline-induced shRNA knockdown)
[14] = 0.926 µM, library screen: screen3, EWS-FLI1 expression: high (no doxycycline)
[15] = 0.926 µM, library screen: screen3, EWS-FLI1 expression: low (doxycycline-induced shRNA knockdown)
[16] = 2.8 µM, library screen: screen3, EWS-FLI1 expression: high (no doxycycline)
[17] = 2.8 µM, library screen: screen3, EWS-FLI1 expression: low (doxycycline-induced shRNA knockdown)
[18] = 8.3 µM, library screen: screen3, EWS-FLI1 expression: high (no doxycycline)
[19] = 8.3 µM, library screen: screen3, EWS-FLI1 expression: low (doxycycline-induced shRNA knockdown)
[20] = 25 µM, library screen: screen3, EWS-FLI1 expression: low (doxycycline-induced shRNA knockdown)

Measured: cell viability (log2)

Cc1ccc(/C(=C\CN2CCCC2)c2ccccn2)cc1
inactive: [1] 0.101 | [2] 0.13 | [3] 0.18 | [4] 0.0433 | [5] 0.246 | [6] 0.248 | [7] 0.203 | [8] 0.141

Oc1ccc([C@@H]2Oc3ccc(O)cc3[C@@H]3CCC[C@@H]32)cc1
active: [9] -0.181

O=c1onc2n1-c1cc(Br)ccc1OC2
inactive: [3] 0.108 | [4] 0.0407 | [7] 0.0924 | [8] 0.198

CNCCC=C1c2ccccc2CCc2ccccc21
inactive: [1] 0.0497 | [2] 0.118 | [3] 0.2 | [4] 0.134 | [5] 0.067 | [6] 0.117 | [7] 0.169 | [8] 0.0842

C[C@]12CC[C@@H](O)C[C@H]1CC[C@@H]1[C@@H]2C(=O)C[C@@]2(C)[C@H]1CC[C@]2(O)C(=O)CO
inactive: [1] 0.162 | [2] 0.116 | [5] 0.185 | [6] 0.0107

C[C@H]1[C@H](NC(=O)/C(=N\OC(C)(C)C(=O)O)c2csc(N)n2)C(=O)N1S(=O)(=O)O
inactive: [10] -0.0125 | [11] 0.0891 | [12] 0.0136 | [13] 0.00917 | [14] 0.0649 | [15] 0.0584 | [16] 0.02 | [17] 0.0799 | [18] 0.0905 | [19] 0.112 | [9] 0.0642 | [20] 0.0641

CCc1c2c(nc3ccc(OC(=O)N4CCC(N5CCCCC5)CC4)cc13)-c1cc3c(c(=O)n1C2)COC(=O)[C@]3(O)CC
inactive: [10] 0.00275 | [11] 0.0626 | [12] -0.0633 | [13] 0.00509 | [15] 0.026
active: [14] -0.241 | [16] -1.31 | [17] -0.173 | [18] -1.95 | [19] -0.414 | [9] -2.57 | [20] -0.647

CC(C)C[C@@H]1NC(=O)[C@H](CCCN)NC(=O)[C@H](C(C)C)NC(=O)[C@@H]2CCCN2C(=O)[C@@H](Cc2ccccc2)NC(=O)[C@H](CC(C)C)NC(=O)[C@H](CCCN)NC(=O)[C@H](C(C)C)NC(=O)[C@@H]2CCCN2C(=O)[C@@H](Cc2ccccc2)NC1=O
active: [1] -1.96 | [2] -0.176 | [5] -3.79

CCOc1ccc(C(=O)Nc2cccc(OC)c2)cc1Cl
inactive: [1] 0.0358 | [2] 0.0408 | [5] 0.151 | [6] 0.0428

Cc1ccc2c(c1)CC[C@H]1CC(=O)CC[C@]21C
inactive: [1] 0.166 | [2] 0.172 | [5] 0.0746 | [6] 0.103

CS(=O)(=O)c1ccc2nc(NC(=O)c3cccc(Cl)c3)sc2c1
inactive: [2] 0.0657 | [5] 0.0503 | [6] 0.0275
active: [1] -0.0938

CC(=O)Nc1ccc(S(=O)(=O)Nc2ccc([N+](=O)[O-])cc2)cc1
inactive: [1] 0.104 | [2] 0.0989 | [5] 0.0879 | [6] 0.134

Cc1ccc(C(=O)Nc2ccc(S(=O)(=O)O)c3cc(S(=O)(=O)O)cc(S(=O)(=O)O)c23)cc1NC(=O)c1cccc(NC(=O)Nc2cccc(C(=O)Nc3cc(C(=O)Nc4ccc(S(=O)(=O)O)c5cc(S(=O)(=O)O)cc(S(=O)(=O)O)c45)ccc3C)c2)c1
inactive: [1] 0.152 | [2] 0.0138 | [5] 0.0749 | [6] 0.0704
active: [3] -2.98 | [4] -2.91 | [7] -3.46 | [8] -3.2

CCc1cc(C(N)=S)ccn1
inactive: [10] 0.0944 | [11] 0.0964 | [1] 0.139 | [2] 0.00592 | [12] 0.102 | [13] 0.162 | [14] 0.0904 | [15] 0.0766 | [5] 0.205 | [6] -0.0465 | [16] 0.172 | [17] 0.0977 | [18] 0.102 | [19] 0.0932 | [9] 0.092 | [20] 0.103

COCc1cc(O)c(O)c(O)c1-c1c(COC)cc(O)c(O)c1O
active: 25 µM, library screen: screen1, EWS-FLI1 expression: high (no doxycycline) -4.25 | 25 µM, library screen: screen1, EWS-FLI1 expression: low (doxycycline-induced shRNA knockdown) -2.42

Cc1ccc(C(C)C)cc2c(C)ccc1-2
inactive: [1] 0.0556 | [2] -0.0467 | [5] 0.0686 | [6] 0.0228

CCOc1cc2ncc(C#N)c(Nc3ccc(OCc4ccccn4)c(Cl)c3)c2cc1NC(=O)/C=C/CN(C)C
active: [18] -0.204 | [19] -0.529
inactive: [10] 0.0468 | [11] 0.0085 | [12] -0.038 | [13] -0.0155 | [14] -0.0139 | [15] -0.00326 | [16] -0.0436 | [17] -0.282 | [9] -0.035 | [20] -0.415

CC12CC[C@](C)(C(=O)O)CC1C1=CC(=O)[C@@H]3C4(C)CC[C@H](OC(=O)CCC(=O)O)C(C)(C)[C@@H]4CCC3(C)[C@]1(C)CC2 (stereo partly specified)
inactive: [1] 0.0741 | [2] -0.061 | [5] 0.0857 | [6] -0.0474

Cc1cn([C@@H]2C[C@@H](O)[C@H](CO)O2)c(=O)[nH]c1=O
inactive: [10] 0.207 | [11] 0.0457 | [12] 0.0611 | [13] 0.118 | [14] 0.128 | [15] 0.0817 | [16] 0.203 | [17] 0.115 | [18] 0.177 | [19] 0.101 | [9] 0.139 | [20] 0.167

NC(=O)c1ncn([C@@H]2O[C@H](CO)[C@@H](O)[C@H]2O)c1O
inactive: [1] 0.115 | [2] 0.116 | [3] 0.21 | [4] 0.141 | [5] 0.0737 | [6] 0.176 | [7] 0.0545 | [8] 0.0404

FC(F)(F)c1ccc(/C=C/c2nc(COc3ccc(CCCCn4ccnn4)cc3)co2)cc1
active: [10] -0.325 | [12] -0.568 | [13] -0.12 | [14] -0.774 | [15] -0.153 | [16] -1.45 | [17] -0.118 | [18] -1.63 | [19] -0.193 | [9] -1.47 | [20] -0.184
inactive: [11] -0.0943

COc1cc(O)c(C(C)=O)c(OC)c1
inactive: [1] 0.0973 | [2] 0.0966 | [5] 0.174 | [6] 0.0819

O=C1c2c(O)cc(O)cc2OC(c2ccc(O)c(O)c2)C1O (stereo unspecified)
inactive: [3] 0.133 | [4] 0.0297 | [7] 0.102 | [8] 0.0627

COc1cc2cccc(OC)c(=O)c2c(OC)c1OC
inactive: [1] 0.0955 | [2] 0.0427 | [5] 0.109 | [6] 0.0214

COc1ccc(/C=C(/NC(=O)c2ccccc2)C(=O)N2CCCCCC2)cc1OC
inactive: [1] 0.12 | [2] 0.0586 | [5] 0.088 | [6] 0.085

CNCC[C@H](Oc1ccc(C(F)(F)F)cc1)c1ccccc1
inactive: [3] 0.139 | [4] 0.0447 | [7] 0.143 | [8] 0.0871

CCCCC(=O)O[C@]1(C(=O)CO)[C@@H](C)C[C@H]2[C@@H]3CCC4=CC(=O)C=C[C@]4(C)[C@@]3(F)[C@@H](O)C[C@@]21C
inactive: [10] 0.0682 | [11] 0.0203 | [12] 0.15 | [13] 0.127 | [14] 0.127 | [15] 0.135 | [16] 0.129 | [17] 0.136 | [18] 0.0174 | [19] 0.103 | [9] 0.1 | [20] 0.187

COc1cc(C(=O)N2CCOCC2)cc(OC)c1OC
inactive: [1] 0.0822 | [2] 0.0424 | [5] 0.092 | [6] 0.0641

CC(=O)OCC(=O)[C@@]1(O)CC[C@H]2[C@@H]3CCC4=CC(=O)CC[C@]4(C)[C@H]3C(=O)C[C@@]21C
inactive: [10] 0.0994 | [11] 0.124 | [1] 0.0838 | [2] 0.0179 | [3] 0.23 | [4] 0.145 | [12] 0.101 | [13] 0.118 | [14] 0.038 | [15] 0.116 | [5] 0.177 | [6] 0.135 | [7] 0.207 | [8] 0.0904 | [16] 0.0544 | [17] 0.064 | [18] 0.0695 | [19] 0.0799 | [9] 0.0909 | [20] 0.134

C[C@H]1C[C@H]2[C@@H]3CCC4=CC(=O)C=C[C@]4(C)[C@@]3(Cl)[C@@H](O)C[C@]2(C)[C@@]1(O)C(=O)CO
inactive: [3] 0.128 | [4] 0.136 | [7] 0.123 | [8] 0.122

COc1cc2nc(N3CCN(C(=O)C4CCCO4)CC3)nc(N)c2cc1OC (stereo unspecified)
inactive: [3] 0.137 | [4] 0.0786 | [7] 0.219 | [8] 0.0762

Oc1ccc(O)cc1
inactive: [1] 0.173 | [2] -0.00289 | [3] 0.117 | [4] 0.0439 | [5] 0.159 | [6] -0.0565 | [7] 0.0822 | [8] 0.0421

CC1CCC(NC(=O)N(CCCl)N=O)CC1 (stereo unspecified)
inactive: 0.025 µM, library screen: screen2, EWS-FLI1 expression: high (no doxycycline) -0.0398 | 0.025 µM, library screen: screen2, EWS-FLI1 expression: low (doxycycline-induced shRNA knockdown) 0.0242 | [3] -0.0116 | [4] 0.0352 | [7] 0.0888 | [8] -0.00139 | 25 µM, library screen: screen2, EWS-FLI1 expression: high (no doxycycline) 0.114 | 25 µM, library screen: screen2, EWS-FLI1 expression: low (doxycycline-induced shRNA knockdown) 0.0494

Source: the supplement of paper PMC6089552
